Some of the results follow. Repeats are few or missing, and single values can be far off.
The molecules below were run on A2058 (assay: cell count relative to DMSO control; melanoma cells; higher = more viable cells). Details: library dose: standard library concentration; 72 h.
Cn1c(Nc2ccc(C(F)(F)F)cc2)nc2cc(Oc3ccnc(-c4ncc(C(F)(F)F)[nH]4)c3)ccc21 + N#Cc1c(O)c2c(-c3ccc(-c4ccccc4O)cc3)csc2[nH]c1=O [A769662] (first compound 0.4 µM, partner dose 10 µM) was tested, and the cell count was 81.6%.
COCC[n+]1c2c(n(Cc3cnccn3)c1C)C(=O)c1ccccc1C2=O + N#Cc1c(O)c2c(-c3ccc(-c4ccccc4O)cc3)csc2[nH]c1=O [A769662] (first compound 0.002 µM, partner dose 10 µM) gave a cell count of 25.8%.
Nc1cccc2c1CN(C1CCC(=O)NC1=O)C2=O (stereo unspecified) [lenalidomide] + O=c1cc(-c2cccc3c2Sc2ccccc2S3)oc(N2CCOCC2)c1 [KU55933] (first compound 5 µM, partner dose 5 µM) showed a cell count of 108%.
O=C(CCCCCCC(=O)Nc1ccccc1)NO [vorinostat] + CCCCCCCCCCCC1=C(O)C(=O)C=C(O)C1=O [Embelin] (first compound 0.4 µM, partner dose 6 µM) was tested, and the cell count was 79.5%.
Clc1ccc(Nc2nnc(Cc3ccncc3)c3ccccc23)cc1 [vatalanib] + CCN(CC)CCCCNc1ncc2cc(-c3cc(OC)cc(OC)c3)c(NC(=O)NC(C)(C)C)nc2n1 [PD173074] (first compound 10 µM, partner dose 0.5 µM) gave a cell count of 78.6%.
With Clc1ccc(Nc2nnc(Cc3ccncc3)c3ccccc23)cc1 [vatalanib] + O=C(Nc1ccccc1)c1cc([N+](=O)[O-])ccc1Cl [GW9662] (first compound 10 µM, partner dose 10 µM) the cell count was 67.5%.

Source: the supplement of paper PMC4604168 (melanoma cell lines)
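Note: cells treated in 1,536-well plates, then fixed and DAPI-stained, with nuclei counted from automated high-throughput microscope images.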
